Assay results reported in the RNAGym collection of RNA variant scans (doi:10.7554/elife.90254).
The source gives no read counts; variants with many changes may rest on few reads.

B1: LINE1-mini (parent)
chain: GGCAGAGCUCAACACAGCGUGGCAAAGUGGCUGUGGCUAGACUGCC

Variants of: B1
Assay: self-cleavage, relative activity (ratio to wild type); higher = more cleavage; in vitro, sequencing; the parent is a self-cleaving ribozyme

**Q.** For GGCAGACCUCAAUACAGCGCGGCAAAGUGGCUGCGGCUACACUGCA [G7C C13U U20C U34C G40C C46A], which self-cleavage is on record?
**A.** The self-cleavage was 0.02.

**Q.** With GGCAUAGCUCAACAAAGCGUGGCAAAGUGGCUUUGGCUAGACUGCC [G5U C15A G33U] as the variant, how does the self-cleavage read?
**A.** Its self-cleavage is 0.04.

**Q.** Which self-cleavage does the source give for GCCAGAGCUGAACGCAGCGUGGCAAAGUGGCUGUGGAUAGACUGCC [G2C C10G A14G C37A] here?
**A.** The self-cleavage was 0.01.

**Q.** Which self-cleavage does the source give for GGGAGAGGUCAACACAGCGUGGCAAAGUUGCUGUGGCUAGACUGCC [C3G C8G G29U] here?
**A.** The self-cleavage was 0.45.

**Q.** For GGCAGAGCUCAACACAGCGUGGCAUAGGGGCUGUGGUUAGACUGUC [A25U U28G C37U C45U], which self-cleavage is on record?
**A.** Its self-cleavage is 0.01.

**Q.** Which self-cleavage does the source give for GGCAGAGCUCAACUCAGCGAGGCAAAGUUGCUUUGGCUAGACUGCC [A14U U20A G29U G33U] here?
**A.** The self-cleavage was 0.17.

**Q.** With GGCAGAGAUCGACACAGCGUGGCAAAGUGGCUGUGGCUAGACUAAC [C8A A11G G44A C45A] as the variant, how does the self-cleavage read?
**A.** The self-cleavage was 0.04.

**Q.** For GGCAGAGCUCAACGCAGCGUUGCAAAGUGGCUGUGUCUAGACUGCU [A14G G21U G36U C46U], which self-cleavage is on record?
**A.** The self-cleavage was 0.07.

**Q.** For GGCAGGGUUCAACACAGCGUGGCAAAGUGGCUGUGGCUAGAGUGCC [A6G C8U C42G], which self-cleavage is on record?
**A.** The self-cleavage was 0.05.

**Q.** With GGCAUAGUUCAACACAGCGUGGCCAAGUGGCUGUGGCUACACUGCC [G5U C8U A24C G40C] as the variant, how does the self-cleavage read?
**A.** The self-cleavage was 0.05.

**Q.** Which self-cleavage does the source give for GACAGAGCUCAACAGAGCGUGGCAAAGUGGCUGUGGCUACACUGCC [G2A C15G G40C] here?
**A.** Its self-cleavage is 0.03.

**Q.** With GGCAAGGCUCAACACAGCGUGGCAAAGUGGGUGUGGCUAGACUGCC [G5A A6G C31G] as the variant, how does the self-cleavage read?
**A.** The self-cleavage was 0.05.

**Q.** Which self-cleavage does the source give for AGCAGAGCUCUACACAGCGUGUCAAAGUGACUGUGGCUAGACUGCC [G1A A11U G22U G30A] here?
**A.** Its self-cleavage is 0.07.

**Q.** Which self-cleavage does the source give for GGCAUAGCUCAACACAGCGUGGCAAAGUGGCUGGGGCUACACUGGC [G5U U34G G40C C45G] here?
**A.** Its self-cleavage is 0.01.

**Q.** With GGCAGAGCUCAACACAAUGUGGCAAAGUGGCUGUGGCUAGAAUGCC [G17A C18U C42A] as the variant, how does the self-cleavage read?
**A.** The self-cleavage was 0.04.

**Q.** With GGCAGAGCUCGAACCAGCGUGGCAAAGUGGCUGUGGCUAGACUGCC [A11G C13A A14C] as the variant, how does the self-cleavage read?
**A.** Its self-cleavage is 0.01.

**Q.** For GGCAGAGCUUAACACAGCGUGGCAAAAUGGCUGUGACUAGACUGCC [C10U G27A G36A], which self-cleavage is on record?
**A.** The self-cleavage was 0.02.

**Q.** For GGCAGAGCCCAACACAGCGUGGCAAAGUGGUUGUUGGUAGACUGUC [U9C C31U G35U C37G C45U], which self-cleavage is on record?
**A.** The self-cleavage was 0.

**Q.** For GACAGAGCUAGACACAAUGUGGCAAAGUCGCUGUGGCUCGACUGCC [G2A C10A A11G G17A C18U G29C A39C], which self-cleavage is on record?
**A.** Its self-cleavage is 0.01.

**Q.** With GGCAGAGCUCAACACAGCGUGGCAAAGCGGCUCUGGCUAGACUGCU [U28C G33C C46U] as the variant, how does the self-cleavage read?
**A.** Its self-cleavage is 0.09.

**Q.** With GGCUCAGAGCAACACAGCGUGGCAAAGUCGGUGUGGCUAGACUGCC [A4U G5C C8A U9G G29C C31G] as the variant, how does the self-cleavage read?
**A.** The self-cleavage was 0.05.

**Q.** Which self-cleavage does the source give for GGCAGAGGUCAACACAGCGUAGCAAAGUGGCUGUGGCUAGUCUGCC [C8G G21A A41U] here?
**A.** The self-cleavage was 0.09.

**Q.** Which self-cleavage does the source give for GGAAGAGCUCAUCAUAGCGUGGCAAAUUGGCUGUGGCUAGAGUGCC [C3A A12U C15U G27U C42G] here?
**A.** The self-cleavage was 0.11.

**Q.** With GGCAGAGCUCAACAGAGCGUGGCAACGUGGCUUUGGCUAGACUGCC [C15G A26C G33U] as the variant, how does the self-cleavage read?
**A.** Its self-cleavage is 0.42.

**Q.** With GGCAGAGCUCAACACCGCGUGGCAAAGUGGCUCUGGCCAGACUGCC [A16C G33C U38C] as the variant, how does the self-cleavage read?
**A.** The self-cleavage was 0.

**Q.** With GCCAGAGCUCAACACAGCGUGGCUAAGCGGCUGUGGCUAGACUGCC [G2C A24U U28C] as the variant, how does the self-cleavage read?
**A.** Its self-cleavage is 0.05.

**Q.** Which self-cleavage does the source give for GGCAGAGCUCGACACAGCGUUGCAAAUUUGCUGUGGCUAGACUGCC [A11G G21U G27U G29U] here?
**A.** Its self-cleavage is 0.

**Q.** Which self-cleavage does the source give for GGCAGAGAUCAACACAGCGUGGCAAAGUGGAUGCUGCUAGACUGCC [C8A C31A U34C G35U] here?
**A.** The self-cleavage was 0.12.

**Q.** For GGCAGCGCUCAACACAGCGUGGCAAAGUGGUUUUGGCUAGACUGCC [A6C C31U G33U], which self-cleavage is on record?
**A.** Its self-cleavage is 0.03.

**Q.** With GGCAGAGGUCAACAAAGCGUAGCUAAGUGGCUGUGGCUUGACUGUC [C8G C15A G21A A24U A39U C45U] as the variant, how does the self-cleavage read?
**A.** Its self-cleavage is 0.08.

**Q.** With GGCAGAGCUCAAUACAGCGUGGCAAAGUGGCUGUGCAAAGACUGCC [C13U G36C C37A U38A] as the variant, how does the self-cleavage read?
**A.** Its self-cleavage is 0.01.

**Q.** With GGCAGAGCUCAACACCACGUGGCUACGUGGCUGUGGCUAGACUGCC [A16C G17A A24U A26C] as the variant, how does the self-cleavage read?
**A.** Its self-cleavage is 0.02.

**Q.** Which self-cleavage does the source give for GGCAGAGCUAAACACAGCGUGGCAAAGUGGCUGUCGGUAGACUGCC [C10A G35C C37G] here?
**A.** The self-cleavage was 0.02.

**Q.** With GUUAGAGCUCAACACAGCGUGGCGAAGUGGCUGUGGCUAGACUGCC [G2U C3U A24G] as the variant, how does the self-cleavage read?
**A.** The self-cleavage was 0.14.

**Q.** For CGUAGAGCUCAACACAGCGUUGCAAAGUGGCUGUGGCUAGACUGCA [G1C C3U G21U C46A], which self-cleavage is on record?
**A.** The self-cleavage was 0.16.

**Q.** With GGCAGAGCUCAACACCGCGUGGCAAAGUGGCUGUGGCUAUACUGCA [A16C G40U C46A] as the variant, how does the self-cleavage read?
**A.** Its self-cleavage is 0.03.

**Q.** Which self-cleavage does the source give for GGCGGAGCUCAACACAGCCUGGCAACGUGGCUCUGGCAAGACUGCC [A4G G19C A26C G33C U38A] here?
**A.** The self-cleavage was 0.06.

**Q.** Which self-cleavage does the source give for GGCUGAGCUCAACAUAGCGAGGCAAAGUGGCUGUGGCUCGACUGCC [A4U C15U U20A A39C] here?
**A.** The self-cleavage was 0.13.

**Q.** For CGCAGAGCUAAAUACAACGUGGCAAAGUGGCUGGGGCCAGACUGCC [G1C C10A C13U G17A U34G U38C], which self-cleavage is on record?
**A.** The self-cleavage was 0.

**Q.** For CGCAGAGCUCAACUCAGCAUGGCAACGUGGCUGUGGCUAGACUGCC [G1C A14U G19A A26C], which self-cleavage is on record?
**A.** Its self-cleavage is 0.11.

**Q.** Which self-cleavage does the source give for GGCAGAGCUCAACACAGCGUAGGAAAGUGGUUGUGGCUAGACUGCC [G21A C23G C31U] here?
**A.** Its self-cleavage is 0.15.

**Q.** For GGCAGAGCUCAACAUAGCGUUGCAAAGUGGCUGUGGAUCGACUGCA [C15U G21U C37A A39C C46A], which self-cleavage is on record?
**A.** The self-cleavage was 0.05.

**Q.** Which self-cleavage does the source give for GGCAUAGCUCAACAAAGCGUGGCUAAGUGGCUGUGGCUUGACUGCC [G5U C15A A24U A39U] here?
**A.** The self-cleavage was 0.05.

**Q.** With GGCAGAGCUAGACACAGCGCAGCAAAGUGGCUGUGGCUCGACAGCC [C10A A11G U20C G21A A39C U43A] as the variant, how does the self-cleavage read?
**A.** The self-cleavage was 0.01.

**Q.** With CGGAGAGCUCAACACAACGUGGCAUAGAGGCUGUGGCUAGACCGCC [G1C C3G G17A A25U U28A U43C] as the variant, how does the self-cleavage read?
**A.** Its self-cleavage is 0.05.

**Q.** With GGCAGAGCUCAACACCGCGUGGCAAAGUGGCUGUGGUUAGCCUGGC [A16C C37U A41C C45G] as the variant, how does the self-cleavage read?
**A.** Its self-cleavage is 0.

**Q.** For GGCCGAGAUCAACACAGCGUGGCAAAGUGGCUGUGGCUAGACUGCU [A4C C8A C46U], which self-cleavage is on record?
**A.** Its self-cleavage is 0.31.

**Q.** For GGCAGAGCGCAACACAGCGUAGCAAAGUGGCUGUGGCGAGACUGCC [U9G G21A U38G], which self-cleavage is on record?
**A.** Its self-cleavage is 0.01.

**Q.** Which self-cleavage does the source give for UGCAGAGUUCAACACAGCGUGGCAAAGUGGCUGUGGCUAUACUGCC [G1U C8U G40U] here?
**A.** The self-cleavage was 0.04.

**Q.** For GGCAGAGCUCAACACACCAUGGCAAAGUGGCUGUGGCUGGACAGCC [G17C G19A A39G U43A], which self-cleavage is on record?
**A.** Its self-cleavage is 0.13.

**Q.** Which self-cleavage does the source give for GGCAGAGCUGAACACAGCGUGGCAAUGUGGCUGUGGCUAGACUGUC [C10G A26U C45U] here?
**A.** The self-cleavage was 0.08.

**Q.** For GGCAGAGUUCAACACAGCGUGGCAAUGUGGCCGUGGCUAGACUGCC [C8U A26U U32C], which self-cleavage is on record?
**A.** Its self-cleavage is 0.34.

**Q.** For GCCAGAGCUCAACAGAGCGUGGUAAAGUGGCUGUGGCUAGACUGCC [G2C C15G C23U], which self-cleavage is on record?
**A.** The self-cleavage was 0.

**Q.** With GGCAGAACUCAACAUAGCGUGGUAAAGUGGCUGUGGCUAGACUGCC [G7A C15U C23U] as the variant, how does the self-cleavage read?
**A.** The self-cleavage was 0.23.

**Q.** Which self-cleavage does the source give for GGCAGAGCUCAACACAGCGUGGCAAUUUCGCUGUGGCUAGACCGCC [A26U G27U G29C U43C] here?
**A.** Its self-cleavage is 0.02.

**Q.** For GGCAGAGUUCAACACAGCGUGGCAAGGUGGCUGUGGCUAGACUGGC [C8U A26G C45G], which self-cleavage is on record?
**A.** Its self-cleavage is 0.35.
